Test results as given in patent publication US9745266B2 (THE REGENTS OF THE UNIVERSITY OF COLORADO, A BODY CORPORATE, priority 2013, dated 2017).
At least one read-out could not be matched to a standard name with certainty.

Experiments:
[1] = tested on: MRSA ATCC BAA-44; experiment: Minimum resensitizing concentration (MRC), modified broth microdilution; format: cell-based, S. aureus; conditions: for MRC amox/clav: amoxicillin/clavulanic acid at 4/2 μg/ml; for MRC cefazolin: cefazolin at 8 μg/ml; for MRC methicillin: in presence of methicillin
Experimental: (§1) For these activity tests, AMOXICILLIN® was used in combination with clavulanic acid (a.k.a., AUGMENTIN®), CEFAZOLIN®, and MEROPENEM® (an ultra-broad-spectrum carbapenem). […] To assess activity of each analog as a resistance-modifying agent (RMA), a modified broth microdilution assay was used. Briefly, this involves incubating MRSA with 2-fold serial dilutions of a compound in the presence of each individual antibiotic at its Clinical Laboratory Standards Institutes (CLSI)-defined sensitive concentration. For AMOXICILLIN®/clavulanic acid, this concentration is 4/2 μg/ml (8-fold potentiation), for CEFAZOLIN®, 8 μg/ml (16-fold potentiation) and for MEROPENEM®, 4 μg/ml (4-fold potentiation). Following overnight incubation, plates were examined for bacterial growth, or lack thereof. Compounds were tested at concentrations ranging from 0.5-32 μg/ml. […] The half growth inhibitory concentration (GI50) of each analog was determined by fitting the data using KaleidaGraph (v4.1.1, Synergy Software).
(§2) A modified broth microdilution assay was employed by incubating MRSA (ATCC: BAA-44) with Of1 in 2-fold series dilution in the presence of individual antibiotics at the highest sensitive concentration at 37° C. overnight. […] The MRC values were also determined for another three MRSA strains. […] Furthermore, the mammalian toxicity of Of1 was evaluated using human liver hepatocellular carcinoma HepG2 cell line in CellTiter Glo™ mammalian viability assay (Promega).
(§3) MRC screens were performed as follows: antibiotic MIC values where S. aureus is considered susceptible were determined from the CLSI handbook supplement. Analogs of Of1 were diluted to 5 mg/ml in DMSO. Antibiotic was prepared at twice the intended final concentration in Mueller Hinton Broth (MHB). For amoxicillin/clavulanic acid, the initial concentration was 8/4 μg/ml, for meropenem 8 μg/ml and for cefazolin 16 μg/ml. 50 μl of the antibiotic containing media was added to each well of 96 well plates and 100 μl was added to the top row. 1.28 μl of 5 mg/ml alkaloid solution was added to the top row of each plate to afford a concentration of 64 μg/ml in the top row of each plate and two fold serial dilutions were performed down the columns. Once the plates were prepared, a day culture of MRSA was diluted to OD600 0.002 and 50 μl was added to each well. The final concentration of MRSA was OD600 0.001, the final concentration of amoxicillin/clavulanic acid was 4/2 μg/ml, the final concentration of meropenem was 4 μg/ml the final concentration of cefazolin was 8 μg/ml, and the highest concentration of Of1 analog tested was 32 μg/ml. Plates were incubated overnight at 37° C. with shaking. The MRC value was determined as the concentration of Of1 analog in the presence of antibiotic at which there was no observable overnight growth.

[2] = tested on: MRSA ATCC 33592; experiment: as above; format: cell-based, S. aureus; conditions: meropenem at 4 μg/ml
Experimental: as §1, §2, §3

Compound: C=C1CCCC2Nc3ccc(Cl)cc3C12CCNS(=O)(=O)c1ccc(Cl)cc1 (stereo not drawn) [Cpd 6a, 4-Chloro-N-[2-(6-chloro-4-methylidene-2,3,4,4a,9,9a-hexahydro-1H-carbazol-4a-yl)ethyl]benzene-1-sulfonamide]
- MRC amox/clav [1]: 8 µg/mL
- MRC cefazolin [1]: 4 µg/mL
- MRC methicillin [1]: 8 µg/mL
- MRC meropenem [2]: 8 µg/mL

Compound: C=C1CCCC2Nc3ccc(C)cc3C12CCNS(=O)(=O)c1ccc(Cl)cc1 (stereo not drawn) [Cpd 6b, 4-Chloro-N-[2-(6-methyl-4-methylidene-2,3,4,4a,9,9a-hexahydro-1H-carbazol-4a-yl)ethyl]benzene-1-sulfonamide]
- MRC amox/clav [1]: 16 µg/mL
- MRC cefazolin [1]: 16 µg/mL
- MRC methicillin [1]: 32 µg/mL
- MRC meropenem [2]: 32 µg/mL

Compound: C=C1CCCC2Nc3ccc(OC)cc3C12CCNS(=O)(=O)c1ccc(Cl)cc1 (stereo not drawn) [Cpd 6c, 4-Chloro-N-[2-(6-methoxy-4-methylidene-2,3,4,4a,9,9a-hexahydro-1H-carbazol-4a-yl)ethyl]benzene-1-sulfonamide]
- MRC amox/clav [1]: >32 µg/mL
- MRC cefazolin [1]: >32 µg/mL
- MRC methicillin [1]: >32 µg/mL
- MRC meropenem [2]: >32 µg/mL

Compound: C=C1CCCC2Nc3ccc(F)cc3C12CCNS(=O)(=O)c1ccc(Cl)cc1 (stereo not drawn) [Cpd 6d, 4-Chloro-N-[2-(6-fluoro-4-methylidene-2,3,4,4a,9,9a-hexahydro-1H-carbazol-4a-yl)ethyl]benzene-1-sulfonamide]
- MRC amox/clav [1]: 16 µg/mL
- MRC cefazolin [1]: 16 µg/mL
- MRC methicillin [1]: 16 µg/mL
- MRC meropenem [2]: 16 µg/mL

Compound: C=C1CCCC2Nc3ccccc3C12CCNS(=O)(=O)c1ccc(Cl)cc1 (stereo not drawn) [Cpd 6e, 4-Chloro-N-[2-(4-methylidene-2,3,4,4a,9,9a-hexahydro-1H-carbazol-4a-yl)ethyl]benzene-1-sulfonamide]
- MRC amox/clav [1]: 16 µg/mL
- MRC cefazolin [1]: 16 µg/mL
- MRC methicillin [1]: 16 µg/mL
- MRC meropenem [2]: 16 µg/mL

Compound: C=C1CCCC2Nc3c(ccc4ccccc34)C12CCNS(=O)(=O)c1ccc(Cl)cc1 (stereo not drawn) [Cpd 6f, 4-Chloro-N-(2-{7-methylidene-6bH,7H,8H,9H,10H,10aH,11H-benzo[a]carbazol-6b-yl}ethyl)benzene-1-sulfonamide]
- MRC amox/clav [1]: >32 µg/mL
- MRC cefazolin [1]: >32 µg/mL
- MRC methicillin [1]: >32 µg/mL
- MRC meropenem [2]: >32 µg/mL

Compound: C=C1CCCC2Nc3c(Br)cccc3C12CCNS(=O)(=O)c1ccc(Cl)cc1 (stereo not drawn) [Cpd 6g, N-[2-(8-bromo-4-methylidene-2,3,4,4a,9,9a-hexahydro-1H-carbazol-4a-yl)ethyl]-4-chlorobenzene-1-sulfonamide]
- MRC amox/clav [1]: >32 µg/mL
- MRC cefazolin [1]: 32 µg/mL
- MRC methicillin [1]: >32 µg/mL
- MRC meropenem [2]: 8 µg/mL

Compound: C=C1CCCC2Nc3cc(Br)ccc3C12CCNS(=O)(=O)c1ccc(Cl)cc1 (stereo not drawn) [Cpd 6h, N-[2-(7-bromo-4-methylidene-2,3,4,4a,9,9a-hexahydro-1H-carbazol-4a-yl)ethyl]-4-chlorobenzene-1-sulfonamide]
- MRC amox/clav [1]: 16 µg/mL
- MRC cefazolin [1]: 16 µg/mL
- MRC methicillin [1]: 32 µg/mL
- MRC meropenem [2]: 16 µg/mL

Compound: C=C1CCC[C@@H]2Nc3cccc(Br)c3[C@]12CCNS(=O)(=O)c1ccc(Cl)cc1 [Cpd 6i, N-(2-((4aS,9aS)-5-bromo-4-methylene-2,3,4,4a,9,9a-hexahydro-1H-carbazol-4a-yl)ethyl)-4-chlorobenzenesulfonamide]
- MRC amox/clav [1]: 32 µg/mL
- MRC cefazolin [1]: 16 µg/mL
- MRC methicillin [1]: >32 µg/mL
- MRC meropenem [2]: 16 µg/mL

Compound: C=C1CCCC2Nc3c(F)cc(Cl)cc3C12CCNS(=O)(=O)c1ccc(Cl)cc1 (stereo not drawn) [Cpd 6j, 4-Chloro-N-[2-(6-chloro-8-fluoro-4-methylidene-2,3,4,4a,9,9a-hexahydro-1H-carbazol-4a-yl)ethyl]benzene-1-sulfonamide]
- MRC amox/clav [1]: 16 µg/mL
- MRC cefazolin [1]: 16 µg/mL
- MRC methicillin [1]: 32 µg/mL
- MRC meropenem [2]: 32 µg/mL

Compound: C=C1CCCC2Nc3c(Cl)cc(Cl)cc3C12CCNS(=O)(=O)c1ccc(Cl)cc1 (stereo not drawn) [Cpd 6k, 4-Chloro-N-[2-(6,8-dichloro-4-methylidene-2,3,4,4a,9,9a-hexahydro-1H-carbazol-4a-yl)ethyl]benzene-1-sulfonamide]
- MRC amox/clav [1]: 4 µg/mL
- MRC cefazolin [1]: 4 µg/mL
- MRC methicillin [1]: 4 µg/mL
- MRC meropenem [2]: 4 µg/mL

Compound: C=C1CCCC2Nc3c(F)cc(Br)cc3C12CCNS(=O)(=O)c1ccc(Cl)cc1 (stereo not drawn) [Cpd 6l, N-[2-(6-bromo-8-fluoro-4-methylidene-2,3,4,4a,9,9a-hexahydro-1H-carbazol-4a-yl)ethyl]-4-chlorobenzene-1-sulfonamide]
- MRC amox/clav [1]: 2 µg/mL
- MRC cefazolin [1]: 4 µg/mL
- MRC methicillin [1]: 2 µg/mL
- MRC meropenem [2]: 4 µg/mL

Compound: C=C1CCCC2Nc3c(F)ccc(Br)c3C12CCNS(=O)(=O)c1ccc(Cl)cc1 (stereo not drawn) [Cpd 6m, N-[2-(5-bromo-8-fluoro-4-methylidene-2,3,4,4a,9,9a-hexahydro-1H-carbazol-4a-yl)ethyl]-4-chlorobenzene-1-sulfonamide]
- MRC amox/clav [1]: >32 µg/mL
- MRC cefazolin [1]: >32 µg/mL
- MRC methicillin [1]: >32 µg/mL
- MRC meropenem [2]: 8 µg/mL

Compound: C=C1CCCC2Nc3c(Br)ccc(Br)c3C12CCNS(=O)(=O)c1ccc(Cl)cc1 (stereo not drawn) [Cpd 6n, 4-chloro-N-[2-(5,8-dibromo-4-methylidene-2,3,4,4a,9,9a-hexahydro-1H-carbazol-4a-yl)ethyl]benzene-1-sulfonamide]
- MRC amox/clav [1]: >32 µg/mL
- MRC cefazolin [1]: >32 µg/mL
- MRC methicillin [1]: >32 µg/mL
- MRC meropenem [2]: 4 µg/mL

Compound: C=C1CCCC2Nc3ccc(Br)cc3C12CCNC(=O)C(F)(F)F (stereo not drawn) [Cpd 12a, N-[2-(6-bromo-4-methylidene-2,3,4,4a,9,9a-hexahydro-1H-carbazol-4a-yl)ethyl]-2,2,2-trifluoroacetamide]
- MRC amox/clav [1]: >32 µg/mL
- MRC cefazolin [1]: >32 µg/mL
- MRC methicillin [1]: >32 µg/mL
- MRC meropenem [2]: 32 µg/mL

Compound: C=C1CCCC2Nc3ccc(Br)cc3C12CCNC(=O)c1ccc(Cl)cc1 (stereo not drawn) [Cpd 12c, N-[2-(6-bromo-4-methylidene-2,3,4,4a,9,9a-hexahydro-1H-carbazol-4a-yl)ethyl]-4-chlorobenzamide]
- MRC amox/clav [1]: >32 µg/mL
- MRC cefazolin [1]: >32 µg/mL
- MRC methicillin [1]: >32 µg/mL
- MRC meropenem [2]: >32 µg/mL

Compound: C=C1CCCC2Nc3ccc(Br)cc3C12CCNS(=O)(=O)c1ccc(C)cc1 (stereo not drawn) [Cpd 12e, N-[2-(6-bromo-4-methylidene-2,3,4,4a,9,9a-hexahydro-1H-carbazol-4a-yl)ethyl]-4-methylbenzene-1-sulfonamide]
- MRC amox/clav [1]: >32 µg/mL
- MRC cefazolin [1]: >32 µg/mL
- MRC methicillin [1]: 32 µg/mL
- MRC meropenem [2]: >32 µg/mL

Compound: C=C1CCCC2Nc3ccc(Br)cc3C12CCNS(=O)(=O)c1ccc(F)cc1 (stereo not drawn) [Cpd 12f, N-[2-(6-bromo-4-methylidene-2,3,4,4a,9,9a-hexahydro-1H-carbazol-4a-yl)ethyl]-4-fluorobenzene-1-sulfonamide]
- MRC amox/clav [1]: >32 µg/mL
- MRC cefazolin [1]: >32 µg/mL
- MRC methicillin [1]: >32 µg/mL
- MRC meropenem [2]: >32 µg/mL

Compound: C=C1CCCC2Nc3ccc(Br)cc3C12CCNS(=O)(=O)c1ccc(Br)cc1 (stereo not drawn) [Cpd 12g, 4-Bromo-N-[2-(6-bromo-4-methylidene-2,3,4,4a,9,9a-hexahydro-1H-carbazol-4a-yl)ethyl]benzene-1-sulfonamide]
- MRC amox/clav [1]: 4 µg/mL
- MRC cefazolin [1]: 4 µg/mL
- MRC methicillin [1]: 8 µg/mL
- MRC meropenem [2]: 8 µg/mL

Compound: C=C1CCCC2Nc3ccc(Br)cc3C12CCNS(=O)(=O)c1ccc(I)cc1 (stereo not drawn) [Cpd 12h, N-[2-(6-bromo-4-methylidene-2,3,4,4a,9,9a-hexahydro-1H-carbazol-4a-yl)ethyl]-4-iodobenzene-1-sulfonamide]
- MRC amox/clav [1]: 4 µg/mL
- MRC cefazolin [1]: 4 µg/mL
- MRC methicillin [1]: 32 µg/mL
- MRC meropenem [2]: 32 µg/mL

Compound: C=C1CCCC2Nc3ccc(Br)cc3C12CCNS(=O)(=O)c1ccc(Cl)c(Cl)c1 (stereo not drawn) [Cpd 12i, N-[2-(6-bromo-4-methylidene-2,3,4,4a,9,9a-hexahydro-1H-carbazol-4a-yl)ethyl]-3,4-dichlorobenzene-1-sulfonamide]
- MRC amox/clav [1]: 4 µg/mL
- MRC cefazolin [1]: 2 µg/mL
- MRC methicillin [1]: 4 µg/mL
- MRC meropenem [2]: 4 µg/mL
